Reference: the supplement of paper PMC11417369
Some of the results follow.

The sequences below were run on PfHDP1 homeodomain (GST-tagged) (assay: gcPBM binding intensity (ln(normalized median fluorescence intensity)); higher = stronger DNA binding).
Outline: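 Binding intensity is the highest Masliner-normalised natural-log median intensity over replicate spots in either probe orientation. To obtain it, GST-tagged P. falciparum DNA-binding domains made in E. coli were incubated for 1 h on an Agilent 4 × 180k array of primer-extended double-stranded 36-bp intergenic genomic probes plus negative controls. Detection used Alexa488 anti-GST antibody with scanning at 488 nm.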

| Sequence | gcPBM binding intensity (ln) |
| --- | --- |
| AAACTTCAAAAAGAGCACTTGAATTTTTTTTTTTTT [TGCATGCA_negctrl_site133] | 6.1 |
| AAAAAGAACACAAAAAGTACAAAAATTATAATGATA [XGTACX_site2676] | 6.47 |
| CATAAATACAAATATACACACATATTTATATTTATA [CACACA_site7277] | 6.69 |
| AATATGTTTTACGTCTCACACATATAGGTTTATATT [CACACA_site4713] | 6.71 |
| ATTATACTTTCCATTCGTACATATATAAATAAATAA [XGTACX_site6245] | 7.19 |
| ATATATAGATGTGAATTATTTATATTATCTATTCTT [CACACA_negctrl_site518] | 6.07 |
| GTATTTATGTGTTTGGTGCAAGGGAGAATTTTTTTT | 8.82 |
| TCAAAGTAAAACAGGACATGCACAGAACATCCTGCC [TGCATGCA_site2] | 7.01 |
| TACACAAAGTTACATACACACTAATATTTACACCAT [CACACA_site6602] | 6.83 |
| TAAAGAAAAATATAAAGTACAAAAATAAAAAAAATA [XGTACX_site8226] | 6.74 |
| AAAAAAAAAACATACACACACATATAGATTTATATG [CACACA_site6847] | 6.56 |
| ATTTATAAAATATAATTACATTTTTAAATAATAAAA [GTGCAC_negctrl_site43] | 6.18 |
| CTTATGTGCATACCTACACACTTACCTATATTTATA [CACACA_site7411] | 9.67 |
| TTACGATTTAAAATGGGTACATATATATGAAAAAAA [XGTACX_site545] | 6.72 |
| ATATAATCTGAGTGCACACAAATAAATAAACATACA [CACACA_site422] | 10.2 |
| TTTTTTTTGTATTTTTCACACACACCGAAGTAAACA [CACACA_site8575] | 6.91 |
| TAAAAGGATGCATATACACACATATAGATTTATATA [CACACA_site7336] | 6.47 |
| TTAAATTCGTCATTTTAAAATAATACAAAAGTTCAA [CACACA_negctrl_site19] | 6.31 |
| TTTTTCCTTATTAATACACACATTCACCTTTTAAAT [CACACA_site479] | 7.62 |
| AGTTGCATACATTGAAGTACAGAACATTTATATATA [XGTACX_site240] | 6.55 |
| TTTTTGTATGCTTCCCGACTACATTATGCCATAAAT [CACACA_negctrl_site136] | 7.21 |
| AAAAAAAAAAAAAAAAAAAAAAAAAAATACATATGT [XGTACX_negctrl_site95] | 7.17 |

| Sequence | gcPBM binding intensity (ln) |
| --- | --- |
| GATTATATATGAAAATGTACAAATATATATATATAT [XGTACX_site5963] | 9.23 |
| TCACTAAACCATTAGAGTACTTGACATATAATGAGC [XGTACX_site3272] | 6.17 |
| TATATATAAAAAACATGTACACAAATTTACATACAT [XGTACX_site4777] | 6.25 |
| AAGAGTTAAAAAAATACACACATATATATTTTTTTA [CACACA_site1980] | 6.57 |
| CATAATTATGCAATTGCACACAACTATCATTTTTTT [CACACA_site2997] | 10.1 |
| TCATTCATATGTTACACACACACACCCACATAAAAA [CACACA_site3245] | 7.04 |
| AAACCAAGGCACAATAATTAAATAAATAAAATCATG [GTGCAC_negctrl_site574] | 6.16 |
| ATATAATTTTTCAAGTGTACTTTTTTTTTTTAACAT [XGTACX_site3050] | 6.42 |
| ATTTATATATATATAGGTACACATATTTATATATAA [XGTACX_site8487] | 6.23 |
| AATATAAATAAAAACACACACACACGGATATTTATA [CACACA_site7134] | 7.15 |
| CACACAACTATCAAGGTGCTAAAATGAAATAATATA [GTGCAC_site9871] | 6.65 |
| TTGTATCATATATTATGTACATATTTATTTATTATC [XGTACX_site7723] | 6.34 |
| CCCATGTAATATTAAACACACACTCATATAACACAA [CACACA_site7906] | 6.78 |
| ATATTTAAATATATTTATATATATAAAAAAAAATAT [GTGCAC_negctrl_site312] | 6.71 |
| CAAAATATTTAAAAAAGTACTTAAAATAAATTCAAA [XGTACX_site6866] | 5.97 |
| ACATATAAACTGTATACACACAAATATTGCATATAT [CACACA_site6804] | 8.1 |
| ATATATCTATATGTGTGTACATATAAGTATTTATAT [XGTACX_site5333] | 6.64 |
| ATATATATAAATATATGTACTAATATATACATATAT [XGTACX_site2289] | 6.51 |
| TACATTCTAAATATTACACACTTTATAAAATAATAA [CACACA_site4069] | 6.5 |
| AGAAAAGAGAAATGGGCACACACACCCATATTATAT [CACACA_site8433] | 6.31 |
| AAGGTGGGAAAAAATAGTACACAACAAAAATGTATG [XGTACX_site8741] | 6.64 |
| CACAAAAAGAAACACACACACATATATATTTATTAT [CACACA_site3646] | 6.73 |
